Series [1] can be described thus: Stock and working solution stability test (bioanalytical validation). The following applies: at +4° C.
For series [2], the system named is HI 3D model (CRISPR-Cas9 ABCA12 KO skin equivalent). In words: Organotypic 3D skin culture of Harlequin Ichthyosis (CRISPR-Cas9 ABCA12 KO equivalent).
The test system of series [3] is Gottingen minipigs. Briefly: 7-day preliminary dermal tolerance/toxicity study in minipigs. Particulars: KM-001 Ointment 0.1, 0.3, 1% w/w.
The subject of series [4] is cultured human keratinocytes (nHEK cells). Briefly: Protein markers of differentiation (involucrin, filaggrin Western Blot) in cultured human keratinocytes. Background: Immunoblotting shows a protein as a band on a membrane.
Series [5] is described as follows: in vivo. The following applies: male, CD-1, mouse, po.
Series [6] deals with pigs. In words: Topical pharmacokinetics and skin irritation of KM-001 in pigs (3 days repeated dosing). Particulars: topical KM-001 ointment 0.3% and 1.0%.
The conditions of series [7]: mouse, in vivo, po.
Where [8] appears, read: 100 nM, 250 nM and 500 nM KM-001, 24 h, 1.2 mM Ca+2 differentiated nHEK.
Where [9] appears, read: higher concentration of KM-001 (1000 nM), 24 h.

For the molecule `O=C(c1ccc(F)cn1)N1CCC(c2ccc(-c3ccccc3C3CC3)cc2CO)C1` (stereo not shown) [KM-001], the “stability of stock and working solutions” value in series [1] is recorded as “up to 54 days”. In addition, the “Keratin 10 expression (IF staining)” value in series [2] (HI 3D model, various KM-001 concentrations) is “normalized Keratin 10 expression in a dose dependent manner”. Also, the “Involucrin and Transglutaminase expression” value in series [2] (HI 3D skin) was “normalizes Involucrin and Transglutaminase expression dose dependently”. Further, in series [2] (normal 3D skin culture), the “structure and function of normal skin” value was “doesn't change structure and function of normal skin”. Besides, the “Macroscopic observations (gross pathology)” value in series [3] (twice daily dermal, 7 days, minipigs) is recorded as “No systemic or local treatment-related changes were noted”. Moreover, the “Terminal body weight and organ weights” value in series [3] (twice daily dermal, 7 days, minipigs, vs controls) is “No relevant changes were observed in terminal body weight and organ weights”. Besides, the “Microscopic observations of treated skin” value in series [3] (vs untreated site and placebo controls) was “did not show any treatment-related changes”. Besides, the entries for the “filaggrin protein expression (Western Blot)” value in series [4] (setting [8]) and in series [4] (setting [9]) were “decrease in the expression” and “does not affect the proteins levels”, respectively. For the same molecule, the entries for the “involucrin protein expression (Western Blot)” value in series [4] (setting [8]) and in series [4] (setting [9]) were “decrease in the expression” and “does not affect the proteins levels”, respectively. Further, the concentration at 90 min in series [5] (3 mg/kg) was 19.1 ± 5.8 ng/mL; in series [5] (10 mg/kg) it was 56.9 ± 12.8 ng/mL; in series [5] (30 mg/kg), 180 ± 35 ng/mL. Besides, the abnormal clinical signs result in series [6] is given as “No abnormal clinical signs were observed”. Besides, in series [7], the “KM-001 detection (matrix not given; skin samples were also collected)” value is recorded as “undetectable”.

The values above are taken from US12435061B2 (priority 2020, dated 2025).
